# The supplement of paper PMC8728848
# The other results are listed elsewhere or left out.
# B1: Epa1-NP (Candida glabrata), Q6VBJ0 (protein)
# chain: MILNPALFLNKCVCIYTTLILLLLTNGGYATSSNDISLASKDPTTFPLGCSPDITTPKKGLSMELYSYDFRKKGSYPCWDAAYLDPNYPRTGYKSHRLLAKVDGVTGNINFYYHATKGCTPQLGHLPASYNYPKPLTMTNFTMLLYGYFRPKVTGFHTFTISADDLLFVNFGAGNAFDCCRRDSSADHFGNYQAYAIWGSKTAKDELTVHLDAGVYYPIRLFYNNREYDGALSFTFKTESNENTVSDFSEYFFSLDDTEEGCPGLISYDSSCASVKTSKIIGIDYHTETPNENLVPITKTIYHLGIPCTGTTTTPLCGSGFYDPLANKCVTINTSSTSSVTKTTSHTTSKEVSFHSSISSQKTLIPKSIPSPYGPIKSQSIPTEMETSSEISSSEYAFSDVISTPSHSPYTKKHSSLNSSSYTSTVIHSLTSYSISQGIFSTSLSEQNITSKSSTDKFSTATSMSNNITQSSIIISQFSTNNENYTTTSMHTSSDKISTETLNNSISTTTSILFSNSSTILKNNTTIISSDKDTHYHPVNPTIVCSTNKTEIICASITQPSISNSNNHWSSSVLKFNSTTVRSTLPSSAGSNETSINVPFSSSTESNTSTSSTSTSNSKMVRSTLPSSAGSNETSISVPFSSSTESNTSTSSTSTSNSKMVRSTLPSSAGSNETSINVPFSSSTESNTSTSSTSTSNSKTVRSTPFSSAGIIMTSLSQRNNKSASSYASSNSKCYNTADSCRKVHSTPSYLLTSSYTSEGVDYDCSLVSTKLKINDTNCVNNKHTTKSCLKTSVTTTIPTLEIKTARKSSSNTIGLHSYPTSSPNKSISSAPIIGYISSFKTIKTASPSYQTSDLTTITTITSLNNPGSTAVENTHESNDKSRKTSSNDISSKHSVIKETKDAVESSNKSHQTNTLKCSSIIIASSSHNSYESLGGTTLTLTLSKVYSPQNNDTLPFLEISEVNPSRTVLPESSKMMQYLTSTEERNKTARNTIATNIVSISTFHFEGEGNAIRMGYTQLLLMLIGIIVMNIGT
# How the values were obtained:
# Assay in all cases: glycan array binding signal (z-score within array); higher = stronger binding
# Conditions in all cases: glycan notation: IUPAC condensed, linker removed
# [1] = biological target: GlcNAc(b1-3)Gal(b1-4)GlcNAc(b1-3)Gal(b1-4)GlcNAc(b1-2)Man(a1-3)[GlcNAc(b1-3)Gal(b1-4)GlcNAc(b1-3)Gal(b1-4)GlcNAc(b1-2)Man(a1-6)]Man(b1-4)GlcNAc(b1-4)GlcNAc
# Method in brief: (§1)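 Columns mapping to the same glycan were averaged after glycan names were converted to IUPAC-condensed notation. The data come from 3228 arrays in the Consortium for Functional Glycomics database, limited to those with an available protein sequence. Binding is reported as a within-array Z-score averaged across arrays of one protein sequence and across linkers.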
# [2] = biological target: GlcNAc(b1-3)Gal(b1-4)GlcNAc(b1-3)Gal(b1-4)GlcNAc(b1-2)Man(a1-3)[GlcNAc(b1-3)Gal(b1-4)GlcNAc(b1-3)Gal(b1-4)GlcNAc(b1-2)Man(a1-6)]Man(b1-4)GlcNAc(b1-4)[Fuc(a1-6)]GlcNAc
# Method in brief: as §1
# [3] = biological target: GlcNAc(b1-3)Gal(b1-4)GlcNAc(b1-3)Gal(b1-4)GlcNAc(b1-2)[GlcNAc(b1-3)Gal(b1-4)GlcNAc(b1-3)Gal(b1-4)GlcNAc(b1-6)]Man(a1-6)[GlcNAc(b1-3)Gal(b1-4)GlcNAc(b1-3)Gal(b1-4)GlcNAc(b1-2)Man(a1-3)]Man(b1-4)GlcNAc(b1-4)[Fuc(a1-6)]GlcNAc
# Method in brief: as §1
# [4] = biological target: GlcNAc(b1-3)Gal(b1-4)GlcNAc(b1-3)Gal(b1-4)GlcNAc(b1-3)Gal(b1-4)GlcNAc(b1-2)Man(a1-3)[GlcNAc(b1-3)Gal(b1-4)GlcNAc(b1-3)Gal(b1-4)GlcNAc(b1-3)Gal(b1-4)GlcNAc(b1-2)Man(a1-6)]Man(b1-4)GlcNAc(b1-4)GlcNAc
# Method in brief: as §1
# [5] = biological target: GlcNAc(b1-3)Gal(b1-4)GlcNAc(b1-3)Gal(b1-4)GlcNAc(b1-3)Gal(b1-4)GlcNAc(b1-2)Man(a1-3)[GlcNAc(b1-3)Gal(b1-4)GlcNAc(b1-3)Gal(b1-4)GlcNAc(b1-3)Gal(b1-4)GlcNAc(b1-2)Man(a1-6)]Man(b1-4)GlcNAc(b1-4)[Fuc(a1-6)]GlcNAc
# Method in brief: as §1
# [6] = biological target: GlcNAc(b1-3)Gal(b1-4)GlcNAc(b1-3)Gal(b1-4)GlcNAc(b1-3)Gal(b1-4)GlcNAc(b1-2)[GlcNAc(b1-3)Gal(b1-4)GlcNAc(b1-3)Gal(b1-4)GlcNAc(b1-3)Gal(b1-4)GlcNAc(b1-6)]Man(a1-6)[GlcNAc(b1-3)Gal(b1-4)GlcNAc(b1-3)Gal(b1-4)GlcNAc(b1-3)Gal(b1-4)GlcNAc(b1-2)Man(a1-3)]Man(b1-4)GlcNAc(b1-4)[Fuc(a1-6)]GlcNAc
# Method in brief: as §1
# [7] = biological target: GlcNAc(b1-3)Gal(b1-4)GlcNAc(b1-3)Gal(b1-4)GlcNAc(b1-3)Gal(b1-4)GlcNAc(b1-3)Gal(b1-4)GlcNAc(b1-2)Man(a1-3)[GlcNAc(b1-3)Gal(b1-4)GlcNAc(b1-3)Gal(b1-4)GlcNAc(b1-3)Gal(b1-4)GlcNAc(b1-3)Gal(b1-4)GlcNAc(b1-2)Man(a1-6)]Man(b1-4)GlcNAc(b1-4)GlcNAc
# Method in brief: as §1
# [8] = biological target: GlcNAc(b1-3)Gal(b1-4)GlcNAc(b1-3)Gal(b1-4)GlcNAc(b1-3)Gal(b1-4)GlcNAc(b1-3)Gal(b1-4)GlcNAc(b1-2)Man(a1-3)[GlcNAc(b1-3)Gal(b1-4)GlcNAc(b1-3)Gal(b1-4)GlcNAc(b1-3)Gal(b1-4)GlcNAc(b1-3)Gal(b1-4)GlcNAc(b1-2)Man(a1-6)]Man(b1-4)GlcNAc(b1-4)[Fuc(a1-6)]GlcNAc
# Method in brief: as §1
# [9] = biological target: GlcNAc(b1-3)Gal(b1-4)GlcNAc(b1-3)Gal(b1-4)GlcNAc(b1-3)Gal(b1-4)GlcNAc(b1-3)Gal(b1-4)GlcNAc(b1-2)[GlcNAc(b1-3)Gal(b1-4)GlcNAc(b1-3)Gal(b1-4)GlcNAc(b1-3)Gal(b1-4)GlcNAc(b1-3)Gal(b1-4)GlcNAc(b1-6)]Man(a1-6)[GlcNAc(b1-3)Gal(b1-4)GlcNAc(b1-3)Gal(b1-4)GlcNAc(b1-3)Gal(b1-4)GlcNAc(b1-3)Gal(b1-4)GlcNAc(b1-2)Man(a1-3)]Man(b1-4)GlcNAc(b1-4)[Fuc(a1-6)]GlcNAc
# Method in brief: as §1
# [10] = biological target: GlcNAc(b1-3)Gal(b1-4)GlcNAc(b1-3)Gal(b1-4)GlcNAc(b1-3)GalNAc
# Method in brief: as §1
# [11] = biological target: GlcNAc(b1-3)Gal(b1-4)GlcNAc(b1-3)GalNAc
# Method in brief: as §1
# [12] = biological target: GlcNAc(b1-3)Gal(b1-4)GlcNAc(b1-3)[GlcNAc(b1-3)Gal(b1-4)GlcNAc(b1-3)]GalNAc
# Method in brief: as §1
# [13] = biological target: GlcNAc(b1-3)Gal(b1-4)GlcNAc(b1-6)[Gal(b1-3)]GalNAc
# Method in brief: as §1
# [14] = biological target: GlcNAc(b1-3)Gal(b1-4)GlcNAc(b1-6)[GlcNAc(b1-3)Gal(b1-3)]GalNAc
# Method in brief: as §1
# [15] = biological target: GlcNAc(b1-3)Gal(b1-4)GlcNAc(b1-6)[GlcNAc(b1-3)]Gal(b1-4)GlcNAc
# Method in brief: as §1
# GlcNAc(b1-3)GalNAc = biological target: GlcNAc(b1-3)GalNAc
# Method in brief: as §1
# GlcNAc(b1-3)Man = biological target: GlcNAc(b1-3)Man
# Method in brief: as §1
# [16] = biological target: GlcNAc(b1-3)[GlcNAc(b1-4)][GlcNAc(b1-6)]GlcNAc
# Method in brief: as §1
# [17] = biological target: GlcNAc(b1-3)[GlcNAc(b1-6)]Gal(b1-4)GlcNAc
# Method in brief: as §1
# [18] = biological target: GlcNAc(b1-3)[GlcNAc(b1-6)]GalNAc
# Method in brief: as §1
# [19] = biological target: GlcNAc(b1-3)[GlcNAc(b1-6)]GlcNAc
# Method in brief: as §1
# [20] = biological target: GlcNAc(b1-4)Gal(b1-4)GlcNAc
# Method in brief: as §1
# GlcNAc(b1-4)GlcNAc = biological target: GlcNAc(b1-4)GlcNAc
# Method in brief: as §1
# [21] = biological target: GlcNAc(b1-4)GlcNAc(b1-4)GlcNAc
# Method in brief: as §1
# [22] = biological target: GlcNAc(b1-4)GlcNAc(b1-4)GlcNAc(b1-4)GlcNAc(b1-4)GlcNAc
# Method in brief: as §1
# [23] = biological target: GlcNAc(b1-4)GlcNAc(b1-4)GlcNAc(b1-4)GlcNAc(b1-4)GlcNAc(b1-4)GlcNAc
# Method in brief: as §1
# [24] = biological target: GlcNAc(b1-4)[GlcNAc(b1-6)]GalNAc
# Method in brief: as §1
# [25] = biological target: GlcNAc(b1-6)Gal(b1-4)GlcNAc
# Method in brief: as §1
# GlcNAc(b1-6)GalNAc = biological target: GlcNAc(b1-6)GalNAc
# Method in brief: as §1
# GlcNAc3Prop(b1-4)GlcNAc = biological target: GlcNAc3Prop(b1-4)GlcNAc
# Method in brief: as §1
binder,measurement,setting,value
B1,glycan array binding signal (z-score),[1],-0.273
same,glycan array binding signal (z-score),[2],-0.277
same,glycan array binding signal (z-score),[3],-0.27
same,glycan array binding signal (z-score),[4],-0.281
same,glycan array binding signal (z-score),[5],-0.279
same,glycan array binding signal (z-score),[6],-0.275
same,glycan array binding signal (z-score),[7],-0.277
same,glycan array binding signal (z-score),[8],-0.267
same,glycan array binding signal (z-score),[9],-0.281
same,glycan array binding signal (z-score),[10],-0.284
same,glycan array binding signal (z-score),[11],-0.287
same,glycan array binding signal (z-score),[12],-0.287
same,glycan array binding signal (z-score),[13],1.14
same,glycan array binding signal (z-score),[14],-0.288
same,glycan array binding signal (z-score),[15],-0.291
same,glycan array binding signal (z-score),GlcNAc(b1-3)GalNAc,-0.313
same,glycan array binding signal (z-score),GlcNAc(b1-3)Man,-0.296
same,glycan array binding signal (z-score),[16],-0.341
same,glycan array binding signal (z-score),[17],-0.331
same,glycan array binding signal (z-score),[18],-0.284
same,glycan array binding signal (z-score),[19],-0.555
same,glycan array binding signal (z-score),[20],-0.315
same,glycan array binding signal (z-score),GlcNAc(b1-4)GlcNAc,-0.276
same,glycan array binding signal (z-score),[21],-0.346
same,glycan array binding signal (z-score),[22],-0.331
same,glycan array binding signal (z-score),[23],-0.319
same,glycan array binding signal (z-score),[24],-0.319
same,glycan array binding signal (z-score),[25],1.39
same,glycan array binding signal (z-score),GlcNAc(b1-6)GalNAc,-0.314
same,glycan array binding signal (z-score),GlcNAc3Prop(b1-4)GlcNAc,-0.239
